Results published in the supplement of paper PMC4967469.

Tests used:
Test in all cases: Viability of human cancer cell lines after 72 h of drug (GDSC screen)
HG-5-88-01 = compound: COc1cc(N2CCC(C(N)=O)CC2)ccc1Nc1nc(N)c(Cl)c(Nc2ccccc2S(=O)(=O)C(C)C)n1 [HG-5-88-01]; settings: top dose 10 µM; top dose inferred
Protocol: (§1)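 Human cancer cell lines in 384-well plates, medium with 10% serum, drug for 72 h over a 256-fold dose range (nine 2-fold or five 4-fold steps up to the top dose). Adherent lines were fixed and stained with the nucleic acid dye Syto60, suspension lines read with resazurin; signal relative to control wells, capped at 0 and 100%. One two-parameter sigmoid per drug and line, fitted in a mixed model over all curves with the slope shared within a line.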

Elesclomol = compound: CN(NC(=O)CC(=O)NN(C)C(=S)c1ccccc1)C(=S)c1ccccc1 [Elesclomol]; settings: top dose 0.2 µM; top dose inferred
Protocol: as §1

BX-912 = compound: O=C(Nc1cccc(Nc2ncc(Br)c(NCCc3cnc[nH]3)n2)c1)N1CCCC1 [BX-912]; settings: top dose 10.24 µM; top dose inferred
Protocol: as §1

Masitinib = compound: Cc1ccc(NC(=O)c2ccc(CN3CCN(C)CC3)cc2)cc1Nc1nc(-c2cccnc2)cs1 [Masitinib]; settings: top dose 20 µM
Protocol: as §1

VNLG/124 = compound: CCCC(=O)OCc1ccc(OC(=O)/C=C(C)/C=C/C=C(C)/C=C/C2=C(C)CCCC2(C)C)cc1 [VNLG/124]; settings: top dose 5.12 µM; top dose inferred
Protocol: as §1

Tamoxifen = compound: CC/C(=C(\c1ccccc1)c1ccc(OCCN(C)C)cc1)c1ccccc1 [Tamoxifen]; settings: top dose 5 µM
Protocol: as §1

OSI-930 = compound: O=C(Nc1ccc(OC(F)(F)F)cc1)c1sccc1NCc1ccnc2ccccc12 [OSI-930]; settings: top dose 10.24 µM
Protocol: as §1

LAQ824 = compound: O=C(/C=C/c1ccc(CN(CCO)CCc2c[nH]c3ccccc23)cc1)NO [LAQ824]; settings: top dose 1.024 µM; top dose inferred
Protocol: as §1

NSC-87877 = compound: O=S(=O)(O)c1ccc2cc(N=Nc3cc(S(=O)(=O)O)c4cccnc4c3O)ccc2c1 [NSC-87877]; settings: top dose 16 µM; top dose inferred
Protocol: as §1

Bleomycin = compound: Cc1c(N)nc([C@H](CC(N)=O)NC[C@H](N)C(N)=O)nc1C(=O)N[C@H](C(=O)N[C@H](C)[C@@H](O)[C@H](C)C(=O)N[C@H](C(=O)NCCc1nc(-c2nc(C(=O)NCCC[S+](C)C)cs2)cs1)[C@@H](C)O)[C@@H](OC1OC(CO)C(O)C(O)C1OC1OC(CO)C(O)C(OC(N)=O)C1O)c1cnc[nH]1 [Bleomycin]
Protocol: as §1

[1] = top dose 50 µM, screen: GDSC drug entry 1378, top dose inferred
[2] = top dose 64 µM, screen: GDSC drug entry 190

Cell Line	AUC (HG-5-88-01)	IC50 (HG-5-88-01) [µM]	AUC (Elesclomol)	IC50 (Elesclomol) [µM]	AUC (BX-912)	IC50 (BX-912) [µM]	AUC (Masitinib)	IC50 (Masitinib) [µM]	AUC (VNLG/124)	IC50 (VNLG/124) [µM]	AUC (Tamoxifen)	IC50 (Tamoxifen) [µM]	AUC (OSI-930)	IC50 (OSI-930) [µM]	AUC (LAQ824)	IC50 (LAQ824) [µM]	AUC (NSC-87877)	IC50 (NSC-87877) [µM]	AUC (Bleomycin; [1])	IC50 (Bleomycin; [1]) [µM]	AUC (Bleomycin; [2])	IC50 (Bleomycin; [2]) [µM]
Farage (B-cell lymphoma, suspension)	0.989	> 10	0.608	0.0234	0.769	3.2	0.892	16.1	0.993	> 5.12	0.992	> 5	0.868	6.64	0.37	0.0301	0.992	> 16	0.992	> 50	0.154	0.462
CW-2 (large intestine, adherent)	0.968	> 10	0.836	0.147	0.829	7.01	0.901	> 20	0.988	> 5.12	0.988	> 5	0.928	> 10.2	0.966	> 1.02	0.965	> 16	0.711	12.9	0.971	> 64
CAL-33 (head and neck, adherent)	0.861	8.47	0.357	0.00503	0.928	> 10.2	0.949	> 20	0.972	> 5.12	0.985	> 5	0.98	> 10.2	0.562	0.0943	0.983	> 16	0.335	1.09	0.348	1.52
IST-MEL1 (melanoma, adherent)	0.935	> 10	0.465	0.00986	0.941	> 10.2	0.914	> 20	0.982	> 5.12	0.974	> 5	0.957	> 10.2	0.411	0.0347	0.982	> 16	0.331	0.959	0.21	0.462
PC-14 (lung adenocarcinoma, adherent)	0.781	3.68	0.634	0.028	0.878	8.42	0.826	10.4	0.989	> 5.12	0.989	> 5	0.959	> 10.2	0.53	0.0767	0.989	> 16	0.264	0.726	0.175	0.485
MC-CAR (haematopoietic neoplasm, suspension)	0.964	> 10	0.567	0.0186	0.775	3.6	0.842	11.9	0.967	> 5.12	0.973	> 5	0.917	> 10.2	0.343	0.0248	0.989	> 16	0.908	> 50	0.349	1.61
KYSE-50 (oesophagus, adherent)	0.973	> 10	0.876	0.169	0.773	3.63	0.876	16.9	0.984	> 5.12	0.989	> 5	0.928	> 10.2	0.406	0.0362	0.822	8.29	0.618	6.4	0.701	13.9
BHT-101 (thyroid, adherent)	0.839	7.12	0.312	0.00364	0.951	> 10.2	0.934	> 20	0.966	> 5.12	0.969	> 5	0.979	> 10.2	0.457	0.0486	0.985	> 16	0.351	1.19	0.405	2.18
NCI-H524 (small cell lung carcinoma, suspension)	0.937	> 10	0.677	0.0367	0.621	1.32	0.963	> 20	0.99	> 5.12	0.984	> 5	0.991	> 10.2	0.677	0.187	0.989	> 16	0.916	> 50	0.939	> 64
CAL-78 (chondrosarcoma, adherent)	0.939	> 10	0.656	0.0364	0.912	> 10.2	0.986	> 20	0.984	> 5.12	0.981	> 5	0.986	> 10.2	0.901	> 1.02	0.986	> 16			0.977	> 64
UACC-62 (melanoma, adherent)	0.966	> 10	0.588	0.0218	0.988	> 10.2	0.91	> 20	0.984	> 5.12	0.968	> 5	0.959	> 10.2	0.583	0.108	0.988	> 16	0.718	12.8	0.878	63.5
SU8686 (pancreas, adherent)	0.876	> 10	0.468	0.0101	0.95	> 10.2	0.89	> 20	0.984	> 5.12	0.984	> 5	0.971	> 10.2	0.445	0.0444	0.916	> 16	0.829	36.4	0.374	1.72
LB2518-MEL (melanoma, adherent)	0.914	> 10	0.765	0.0771	0.968	> 10.2	0.88	> 20	0.987	> 5.12	0.986	> 5	0.924	> 10.2	0.513	0.0694	0.986	> 16	0.805	26.9	0.241	0.684
MFE-280 (endometrium, adherent)	0.936	> 10	0.8	0.129	0.687	2.48	0.935	> 20	0.982	> 5.12	0.829	4.33	0.945	> 10.2	0.581	0.113	0.965	> 16	0.947	> 50	0.912	> 64
DoTc2-4510 (cervix, adherent)	0.969	> 10	0.981	> 0.2	0.956	> 10.2	0.958	> 20	0.988	> 5.12	0.987	> 5	0.972	> 10.2	0.316	0.0202	0.982	> 16	0.889	> 50	0.184	0.484
HCC1395 (breast, adherent)	0.98	> 10	0.571	0.0203	0.959	> 10.2	0.951	> 20	0.983	> 5.12	0.982	> 5	0.985	> 10.2	0.611	0.138	0.984	> 16	0.617	7.03	0.164	0.29
C32 (melanoma, adherent)	0.977	> 10	0.647	0.0328	0.978	> 10.2	0.985	> 20	0.985	> 5.12	0.984	> 5	0.972	> 10.2	0.869	> 1.02	0.976	> 16	0.744	16.6	0.857	57.7
NCI-H441 (lung adenocarcinoma, adherent)	0.825	9.71	0.981	> 0.2	0.978	> 10.2	0.969	> 20	0.975	> 5.12	0.934	> 5	0.967	> 10.2	0.501	0.0646	0.981	> 16	0.803	37.8	0.595	8.08
MZ1-PC (pancreas, adherent)	0.741	3.69	0.812	0.141	0.826	8.31	0.863	> 20	0.938	> 5.12	0.966	> 5	0.912	> 10.2	0.49	0.0599	0.913	> 16	0.42	1.79	0.21	0.439
NCI-H292 (lung adenocarcinoma, adherent)	0.806	6.44	0.189	0.00115	0.908	> 10.2	0.978	> 20	0.915	> 5.12	0.904	> 5	0.978	> 10.2	0.552	0.0912	0.98	> 16	0.076	< 0.195	0.308	1.03
NEC8 (testis, adherent)	0.989	> 10	0.513	0.0135	0.932	> 10.2	0.906	19.9	0.983	> 5.12	0.991	> 5	0.973	> 10.2	0.281	0.0172	0.991	> 16	0.025	< 0.195	0.043	< 0.25
C-4-I (cervix, adherent)	0.958	> 10	0.304	0.00334	0.969	> 10.2	0.969	> 20	0.985	> 5.12	0.921	> 5	0.969	> 10.2	0.539	0.0825	0.86	15.3	0.183	0.314	0.381	1.83
CHP-212 (neuroblastoma, adherent)	0.75	3.05	0.384	0.00616	0.704	2.28	0.899	> 20	0.959	> 5.12	0.986	> 5	0.971	> 10.2	0.186	0.0081	0.988	> 16			0.111	0.252
MFM-223 (breast, adherent)	0.984	> 10	0.453	0.0093	0.892	> 10.2	0.966	> 20	0.986	> 5.12	0.985	> 5	0.941	> 10.2	0.735	0.298	0.969	> 16	0.94	> 50	0.988	> 64

The IC50 comes from the fitted curve, where viability falls to half of the control; where the fit passes the top or lowest dose, that dose stands as a limit. For AUC the same curve is integrated over the 256-fold range of doses and scaled to a fraction: 1 means no effect, lower means more sensitive. For some assays here: A top dose marked as inferred comes from the curve model; the source does not state it. For some assays here: Drugs with an entry number were screened twice under separate entries, and the two screens often disagree.
